Assay results as given in publication PMC4336329 (PLoS ONE, 2015).
About 14,000 (4.5%) of roughly 310,000 compounds showed an effect of 50% or more. Effects have a minus sign here. The list shows a part of the results.

These molecules were tested against human ether-à-go-go-related gene (hERG) potassium channel (human, UniProt Q12809) (assay: primary screen, population patch clamp on CHO cells stably expressing hERG).
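Note: peak tail current of the secondary pulse compared with the same well before compound.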

Sequence of human ether-à-go-go-related gene (hERG) potassium channel (Q12809 whole entry, looked up): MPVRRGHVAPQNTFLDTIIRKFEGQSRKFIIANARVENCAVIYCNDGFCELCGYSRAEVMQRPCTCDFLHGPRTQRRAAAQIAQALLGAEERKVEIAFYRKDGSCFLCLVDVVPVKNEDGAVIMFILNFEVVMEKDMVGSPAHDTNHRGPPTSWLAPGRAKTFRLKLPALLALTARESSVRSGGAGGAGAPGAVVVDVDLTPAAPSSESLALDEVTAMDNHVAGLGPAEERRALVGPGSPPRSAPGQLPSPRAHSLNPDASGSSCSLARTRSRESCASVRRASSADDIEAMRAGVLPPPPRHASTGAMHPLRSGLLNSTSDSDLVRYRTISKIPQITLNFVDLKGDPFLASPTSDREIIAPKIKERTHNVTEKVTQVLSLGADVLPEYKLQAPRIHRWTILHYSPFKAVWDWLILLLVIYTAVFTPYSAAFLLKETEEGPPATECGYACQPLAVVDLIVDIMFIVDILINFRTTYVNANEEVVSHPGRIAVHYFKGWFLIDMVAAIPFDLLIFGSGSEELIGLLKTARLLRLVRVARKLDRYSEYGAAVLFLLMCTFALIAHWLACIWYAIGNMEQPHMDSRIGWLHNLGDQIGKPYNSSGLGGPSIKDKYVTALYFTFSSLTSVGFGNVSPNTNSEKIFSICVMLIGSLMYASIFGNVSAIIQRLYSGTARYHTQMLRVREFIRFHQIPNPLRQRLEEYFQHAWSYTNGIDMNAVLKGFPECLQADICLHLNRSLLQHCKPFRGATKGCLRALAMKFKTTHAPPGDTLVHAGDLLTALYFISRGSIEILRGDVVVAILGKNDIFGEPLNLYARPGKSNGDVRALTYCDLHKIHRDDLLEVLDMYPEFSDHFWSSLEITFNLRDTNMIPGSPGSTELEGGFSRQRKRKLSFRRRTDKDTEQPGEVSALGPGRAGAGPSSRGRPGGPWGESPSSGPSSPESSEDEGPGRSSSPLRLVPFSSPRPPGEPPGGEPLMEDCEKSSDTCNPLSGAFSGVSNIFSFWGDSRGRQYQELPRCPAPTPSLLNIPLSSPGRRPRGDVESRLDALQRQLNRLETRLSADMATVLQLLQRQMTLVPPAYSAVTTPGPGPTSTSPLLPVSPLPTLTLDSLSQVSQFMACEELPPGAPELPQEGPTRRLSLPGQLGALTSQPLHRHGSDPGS

Compound | hERG current change (%, negative = inhibition) at 10uM [%]
O=C(Nc1cccc(-c2cccc(Cl)c2)c1)C1CCN(C2CCC2)CC1 | -73.7
CCC(=O)Nc1ccc(Br)cn1 | 31.9
CC1CCN(CC(=O)Nc2ccccc2C(=O)NC2CC2)CC1 | -17.4
COc1cc(/C=N/NC(=O)c2cc(C)oc2C)cc(OC)c1OC | 14.9
CCCCCCC(C)n1cc(C(C)=O)c(=O)n(C)c1=O (stereo not drawn) | -12.1
Cc1cccc(N=Nc2c(C)[nH]n(C(N)=S)c2=O)c1C | 11.5
CCCCc1ccc(NC(=O)N[C@@H](C)C(=O)O)cc1 | 7.56
O=C(CCN1C(=O)/C(=C/c2ccc(F)cc2)SC1=S)Nc1cc([N+](=O)[O-])ccc1O | 15
C=CCN(CC(=O)NCC1CCCO1)C(=O)CCC(=O)Nc1cc(C)on1 (stereo not drawn) | 11.7
C=C(C)C(=O)OCC(O)COc1ccc(C(C)(C)c2ccc(OCC(O)COC(=O)C(=C)C)cc2)cc1 (stereo not drawn) | 9.32
COc1ccccc1NS(=O)(=O)c1ccc(O)cc1 | 1.44
NS(=O)(=O)c1ccc(CCNC(=O)CSc2nc3ccccc3c3nc(CCN4CCCCC4)nn23)cc1 | 13.7
CCCc1cc(=O)[nH]c(SCC(=O)N2CCC(C)CC2)n1 | 16.2
Cc1ccc(S(=O)(=O)N2CCN(C(=O)COC(=O)CSc3cc(C)ccc3C)CC2)c(C)c1 | -6.13
Cc1cc(-c2ccc(S(=O)(=O)N(C)c3ccc(C)c(C)c3)s2)on1 | 18.6
O=c1ccc(-c2ccccc2)n[nH]1 | 17.1
CC1CCCN(S(=O)(=O)c2ccc(N(C(=O)c3cnccn3)C(C(=O)NC3CCCCC3)c3cccs3)cc2)C1 (stereo not drawn) | -22.1
COC(=O)C1[C@H]2SC(C)(C)C(C(=O)OC)N2C(=O)N1Cc1nc2ccccc2s1 (stereo partly drawn) | -24.6
COC(=O)Nc1nc(-c2ccc(F)cc2)c(C)s1 | 14.5
Cc1cc(C)c(C(=O)N(C)C2CCCN(Cc3ccccc3F)C2)o1 (stereo not drawn) | -0.652
COCCNc1nc(SC)nc2sc3c(c12)CCN(C)C3 | -71.2
C=C1CCN(c2ccc(C(=O)NCc3ccc(OC)cc3)cc2[N+](=O)[O-])CC1 | -7.55
COCCNC(=O)COCc1cc(-c2ccc3c(c2)OCO3)on1 | 11.6

Compound | hERG current change (%, negative = inhibition) at 10uM [%]
COc1ccc2nc3oc(C(=O)N4CCN(c5ccccc5F)CC4)cc3cc2c1 | 9.44
CCCn1c(SCC(=O)N2c3ccccc3CCc3ccccc32)nc2c1c(=O)n(C)c(=O)n2C | 17.5
CCN1N=C(C)C=C(c2ccccc2)n2c1nc1ccccc12.Cl | -7.58
CC(C)(C)C1=NN(c2ccc([N+](=O)[O-])cc2)C(c2ccccc2)C1 (stereo not drawn) | 16.1
CCOC(=O)N1CCN(C(=O)c2ccc(OCC)cc2)CC1 | -28.3
COc1ccc(N(CC(=O)N/N=C/c2ccc(OC)c(OC)c2)S(=O)(=O)c2ccccc2)cc1 | 3.61
O=C(Cn1cnc([N+](=O)[O-])c1)Nc1cc(Oc2ccc(Cl)cc2Cl)cc([N+](=O)[O-])c1 | 6.34
CC(=O)c1ccc(S(=O)(=O)NCCCC(=O)N(C)Cc2ccc3c(c2)OCO3)cc1 | -30.3
COCCNC(=S)Nc1ccc2nc(N3CCOCC3)cc(C)c2c1 | -0.507
Cc1ccc(-n2c(C)cc(/C=C3\SC(=O)NC3=O)c2C)cc1 | 0.188
CCCNC(=O)CCC(=O)Nc1ncc(-c2ccc(C)cc2)n1C | 1.03
Cc1ccc(N(C(=O)Cc2cccs2)C2C=CS(=O)(=O)C2)cc1Cl (stereo not drawn) | -41.6
COc1cc(NC(=O)CCc2nnc3ccc(NCc4ccco4)nn23)cc(OC)c1 | 4.52
Cc1cccc(OC(=O)c2cncc(Br)c2)c1 | 7.83
NNC(=O)CNc1ccccc1Cl | 13.9
CCn1nnc(NC(=O)c2ccco2)n1 | 20.6
COc1cc(CCC(=O)Nc2cc(Cl)ccc2N2CCN(C)CC2)cc(OC)c1OC | -10.2
COc1cc2[nH]c(C(=O)NCC3CCCO3)cc2c(OC)c1OC (stereo not drawn) | 20.5
Cc1nc2c(cc1NC(=O)C(C)(C)C)nc(C)n2Cc1ccccc1 | 2.81
C=CCNC(=O)C1CC(c2cccc(OC)c2)=NO1 (stereo not drawn) | 8.01
O=C1NC(=Nc2ccccc2Cl)SC1(CO)CO | 11
O=[N+]([O-])c1cccc(NP(=O)(Oc2ccccc2)Oc2ccccc2)c1 | -0.535
